Out of some 310,000 compounds screened, about 2,200 (0.71%) showed an effect of 50% or more. The effect is printed as a negative number. This is one part of the list.
target: human ether-à-go-go-related gene (hERG) potassium channel (human, UniProt Q12809); test: primary screen, population patch clamp on CHO cells stably expressing hERG
Sequence (Q12809 whole entry, looked up): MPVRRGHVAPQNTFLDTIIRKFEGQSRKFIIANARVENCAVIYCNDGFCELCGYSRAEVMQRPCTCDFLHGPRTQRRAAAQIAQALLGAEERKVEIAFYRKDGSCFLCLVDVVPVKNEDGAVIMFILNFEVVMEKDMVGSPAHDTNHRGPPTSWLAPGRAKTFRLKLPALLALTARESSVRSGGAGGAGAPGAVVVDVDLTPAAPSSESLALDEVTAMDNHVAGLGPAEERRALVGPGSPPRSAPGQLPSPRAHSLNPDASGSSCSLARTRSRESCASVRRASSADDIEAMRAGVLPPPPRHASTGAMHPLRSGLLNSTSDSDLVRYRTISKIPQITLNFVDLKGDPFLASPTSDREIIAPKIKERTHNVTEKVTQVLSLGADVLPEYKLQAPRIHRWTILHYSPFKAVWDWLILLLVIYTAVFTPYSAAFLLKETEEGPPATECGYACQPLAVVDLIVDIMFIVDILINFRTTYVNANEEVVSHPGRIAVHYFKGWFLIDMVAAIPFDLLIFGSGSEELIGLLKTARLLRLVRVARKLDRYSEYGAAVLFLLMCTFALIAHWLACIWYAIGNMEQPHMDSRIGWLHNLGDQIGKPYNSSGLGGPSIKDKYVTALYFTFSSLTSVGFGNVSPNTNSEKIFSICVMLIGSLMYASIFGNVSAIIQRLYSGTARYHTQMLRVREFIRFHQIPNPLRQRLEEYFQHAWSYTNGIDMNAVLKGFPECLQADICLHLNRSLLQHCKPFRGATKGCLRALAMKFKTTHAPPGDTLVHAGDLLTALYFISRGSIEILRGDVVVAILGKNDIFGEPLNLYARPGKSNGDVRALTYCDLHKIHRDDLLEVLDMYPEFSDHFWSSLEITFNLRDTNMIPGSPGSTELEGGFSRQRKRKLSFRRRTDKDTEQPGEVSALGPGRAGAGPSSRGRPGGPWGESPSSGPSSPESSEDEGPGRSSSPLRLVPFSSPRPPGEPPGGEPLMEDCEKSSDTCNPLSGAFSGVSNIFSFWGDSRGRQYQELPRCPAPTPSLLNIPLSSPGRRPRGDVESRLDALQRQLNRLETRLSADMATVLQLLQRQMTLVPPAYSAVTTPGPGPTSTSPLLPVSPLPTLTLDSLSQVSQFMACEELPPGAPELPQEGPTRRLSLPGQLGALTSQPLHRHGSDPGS

In order of rising “hERG current change (%, negative = inhibition) at 1uM” value:
1. Cc1cccc(-c2c3c(=O)n(C)c(=O)n(C)c3c3cccnn23)c1  -6.6%
2. CC(C)CCNC(=O)CN(C(=O)Cn1nnc(-c2ccccc2F)n1)c1cccc2c1CCCC2  -1.01%
3. CCOC(=O)C1=C(C)NC(=O)NC1  0.299%
4. NS(=O)(=O)c1ccc(NC(=O)CSc2ccccc2)cc1  1.83%
5. Cc1ccc(C)c(C(=O)CCC(=O)NNC(=O)Cn2nc(C)cc2C)c1  2.19%
6. CCN=C1SC(C(=O)Nc2cccc(OCC)c2)CC(=O)N1CC (stereo not drawn)  3.05%
7. CC(C)Cc1nnc(NC(=O)CCC(=O)N2CCN(C3CCCC3)CC2)s1  4.55%
8. COc1ccc(C(=O)NNC(=O)C(=O)Nc2ccc(C)c(Cl)c2)cc1  5.83%
9. O=C(CCCN1C(=O)C(c2ccccc2)Oc2cccnc21)NCc1ccc(F)cc1 (stereo not drawn)  6.4%
10. CC(NC(=O)C(=O)NN=C1CCCCCC1)c1ccccc1 (stereo not drawn)  7.6%
11. O=C(CN1CCN(Cc2ccccc2)CC1)N/N=C/c1cccs1  8.72%
12. CCc1nnc(NC(=O)CSc2nnc(Cc3ccccc3)n2-c2ccc(OC)cc2)s1  8.85%
13. Cc1ccc(C2CC(c3cccc(C)c3)n3ncnc3N2)cc1 (stereo not drawn)  8.91%
14. O=C(O)c1ccc(Cn2cnc3scc(-c4ccccc4)c3c2=O)cc1  8.99%
15. O=C(NC(=S)NN1CCCCC1c1cccnc1)c1ccc(Cl)cc1Cl (stereo not drawn)  10.1%
16. O=C(Nc1ccc(C#Cc2ccccc2)cc1)C1CC1  10.5%
17. Cc1ccc(C)c(NC(=S)N/N=C2/CCCCc3ccccc32)c1  10.6%
18. COc1ccc(NC(=S)N(CCCOC(C)C)C2CCN(C(C)=O)CC2)cc1Cl  10.7%
19. Cc1cc(=O)n2nc(N3CCCC(C(=O)NC(C)c4ccccc4)C3)sc2n1 (stereo not drawn)  10.9%
20. COc1ccc(NC(=O)c2ccc3c(c2)C(=O)N(CC2CCCO2)C3=O)cc1 (stereo not drawn)  11.6%
21. NC(=O)[C@H]1CC2(CC(c3cccc(NC(=O)CC(c4ccccc4)c4ccccc4)c3)=NO2)CN1C(=O)CC(c1ccccc1)c1ccccc1 (stereo partly drawn)  14.8%
22. COC(=O)c1ccccc1NC(=S)NC(=O)COc1ccccc1  16.9%
23. O=C(NCCCN1CCCCC1)C1CCC(=O)N1CCc1ccccc1 (stereo not drawn)  18.4%
24. CCOc1ccc(OCC(=O)OCn2c(SC)nnc(C)c2=O)cc1  19.2%

From PMC4336329 (PLoS ONE, 2015)
